Test results as given in PubChem BioAssay AID1347120 (National Center for Advancing Translational Sciences (NCATS), 2019).
The campaign covered roughly 390,000 compounds. About 930 (0.24%) were called active. This list was built around the results that the source calls inconclusive (neither active nor inactive); the mix of calls is not that of the screen. The call rests on the fitted dose curve; in most records, active means well fitted activation curve with a large enough effect; inconclusive means small, poorly fitted or top-dose-only effect; inactive means no such curve, though single readings can be large or run the other way. Potencies beside an inconclusive call are fits to weak or partial responses and may not hold up.

assay: qHTS for Suppressors of FUS Proteinopathy: Primary screen using FUS-linked yeast assay; further: nearly all actives have a fitted effect of over 55% in size;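 on growth rescue (activation): plate controls were DMSO vehicle for no effect and reference control for full effect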; conditions: S. cerevisiae FUS-expressing, OD600, 24 h; Potency: growth rescue; growth rescue (activation): at 76.6 µM (top of the series)
Outline: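 Yeast expressing FUS under galactose induction, OD 0.005 in 2% galactose medium; compounds in a dilution series, 24 h at 30C. Growth rescue by absorbance at 600 nm; CP55940 positive control, DMSO negative.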
Potency means the concentration at half of the fitted maximal effect; tags describe the fitted curve by direction and shape.

Compound | Potency | growth rescue (activation)
O=C(COc1ccccc1)Nc1nnc(-c2ccc(F)cc2)o1 | inactive | –
CSc1ccc(-c2cc3c(c4c2ccn4C)C2CCC3O2)cc1 (stereo unspecified) | inactive | –
CNc1nc(-c2ccccc2)nc(-c2ccccc2)c1C#N | inactive | –
COc1ccc(OCc2nnc3n2N=C(c2ccc(C)cc2)CS3)cc1 | inconclusive: 28.2 µM [activator, single point] | –
Nc1nc(Cl)cc(N2CCCC2)n1 | inactive | –
COc1ccc2nc3cccc(OC)c3nc2c1 | inactive | –
CCOc1ccccc1/C=C/c1onc(C)c1S(=O)(=O)N1CCC(C(=O)N2CCCCCC2)CC1 | inconclusive: 15.8 µM [activator, partial curve] | –
COc1cc(NC(=O)c2oc3c(c2C)-c2nn(Cc4cccc(Cl)c4)cc2CC3)cc(OC)c1 | inconclusive: 25.1 µM [activator, single point] | –
CCOc1ccc(N(C(C)C(=O)Nc2cc(Cl)ccc2OC)S(C)(=O)=O)cc1 (stereo unspecified) | inconclusive: 50.1 µM [activator, single point] | –
CC(C)C[C@@H](CN1CCCC1CN1C(=S)NC[C@@H]1Cc1ccc(O)cc1)N1C[C@H](Cc2ccccc2)N(CC2CCCCC2)C1=S (stereo partly specified) | inconclusive: 50.1 µM [activator, single point] | –
Cc1cc(Cl)c2oc(C(=O)N3CCC(O)(c4ccccc4)CC3)c(C)c2c1 | inconclusive: 10 µM [activator, partial curve, poor fit] | –
COc1ccc(CNC(=O)C2CCN(S(=O)(=O)N3CCC4(CC3)OCCO4)CC2)c(OC)c1 | – | inconclusive: -74.9% [activator]
CCN(CC)C(=O)c1sc2c(c1C)c(=O)n(-c1ccc(OC)cc1OC)c(=O)n2CC(=O)c1ccc(Cl)cc1 | active: 20 µM | –
COC(=O)c1ccc2nc(-c3ccco3)c(Cc3ccccc3)n2c1 | inconclusive: 50.1 µM [activator, single point] | –
CC1C(=O)N(Cc2cn(CCC3OCCO3)nn2)CCS(=O)(=O)N1Cc1ccc(-c2ccccc2)cc1 (stereo unspecified) | inconclusive: 28.2 µM [activator, single point] | –
CC(C)CC1C(=O)N(Cc2cn(Cc3ccco3)nn2)CCS(=O)(=O)N1Cc1ccc(-c2ccc(F)nc2)cc1 (stereo unspecified) | inconclusive: 20 µM [activator, single point] | –
COc1ccc(OCC(=O)NCc2ccc3c(c2)CCN3C(=O)c2ccc(F)cc2)cc1 | inconclusive: 31.6 µM [activator, single point] | –
CCN(CC)S(=O)(=O)c1ccc(C(=O)N2CC(=O)Nc3ccc(F)cc3C2c2ccccc2)cc1 (stereo unspecified) | inconclusive: 31.6 µM [activator, single point] | –
CC(C)(C)OC(=O)N1CCC(c2c(C(=O)NCCc3ccccc3)cnn2-c2ccc(F)cc2)CC1 | inconclusive: 7.08 µM [activator, full curve, poor fit] | –
CC(C)c1ccc(NC(=O)c2ccc(-c3ccnn3C)c3ccoc23)cc1 | inconclusive: 44.7 µM [activator, single point] | –
CCOCCCn1c(SCC(=O)Nc2cc(OC)ccc2OC)nc2ccccc2c1=O | inconclusive: 25.1 µM [activator, partial curve, poor fit] | –

Compound | Potency | growth rescue (activation)
C#CCOC(=O)c1cc(Cl)c(=O)n(Cc2ccc(Cl)cc2Cl)c1 | inactive | –
O=C1/C(=C/c2ccc(F)cc2)SC(=S)N1CCCC(=O)N1CCCCC1CCO (stereo unspecified) | inconclusive: 31.6 µM [activator, single point] | –
COc1ccc(-c2cn3nc(N4CCCC(C(=O)Nc5cc(C)cc(C)c5)C4)sc3n2)cc1 (stereo unspecified) | inconclusive: 28.2 µM [activator, single point] | –
CC(C)(C)C1CCc2c(sc(NC(=O)c3ccc(Cl)cc3)c2C(=O)NCc2ccco2)C1 (stereo unspecified) | inactive | –
Cc1ccc(C2=NC3(CCCC3)N=C2SCC(=O)Nc2ccc3c(c2)OCCO3)cc1 | inactive | –
CCC(=O)N1c2ccccc2[C@@H](N(C(C)=O)c2ccccc2)C[C@H]1C | inconclusive: 3.16 µM [activator, partial curve, poor fit] | –
O=S(=O)(NCC(c1cccs1)S(=O)(=O)c1ccccc1)c1ccc(F)c(C(F)(F)F)c1 (stereo unspecified) | inactive | –
Cc1cc(C)c(S(=O)(=O)Nc2ccc(-c3ccc(N4CCCCCC4)nn3)cc2)c(C)c1 | inactive | –
CCCCCCCCN1C(=O)[C@@H](CC(=O)N2CCN(C(=O)C3CC3)CC2)C[C@@]2(C(=O)OC)C1=C[C@H](COCc1ccccc1)O[C@@H]2C | active: 28.2 µM | –
NC(=O)c1c(NC(NC(=O)c2ccco2)C(=O)c2ccc(Cl)cc2)sc2c1CCCC2 (stereo unspecified) | inconclusive: 31.6 µM [activator, single point] | –
COc1ccc(C(N)CCc2ccco2)cc1 (stereo unspecified) | inconclusive: 28.2 µM [activator, partial curve, poor fit] | –
COC(=O)c1ccc(OCC2c3cc(OC)c(OC)cc3CCN2C(=O)Cc2ccccc2)cc1 (stereo unspecified) | inconclusive: 35.5 µM [activator, single point] | –
Cn1cnnc1SCC(=O)Nc1ccc(C#N)cc1 | inactive | –
O=C1S/C(=C\C=C\c2ccco2)C(=O)N1c1ccccc1 | inconclusive: 28.2 µM [activator, partial curve, poor fit] | –
CC(C)(C)c1ccc(Cn2nnc3c(=O)[nH]c(C4CCN(C(=O)Cc5cccs5)CC4)nc32)cc1 | inconclusive: 35.5 µM [activator, single point] | –
COc1ccccc1CNC(=O)Cn1nnc(-c2ccncc2)n1 | inconclusive: 22.4 µM [activator, single point] | –
Cc1ccc2cc(CN(Cc3ccccc3)Cc3nnnn3C3CCCC3)c(=O)[nH]c2c1 | inconclusive: 35.5 µM [activator, single point] | –
COc1cc(CNC(=O)c2ccc3c(c2)c(C)c(C)n3Cc2cccc(C)c2)cc(OC)c1OC | inconclusive: 39.8 µM [activator, single point] | –
CN(CC(=O)Nc1ccncc1)S(=O)(=O)c1ccc(Br)cc1 | – | inconclusive: 55.7% [activator]
CC(C)(C)C(=O)NCC(c1ccc2c(c1)OCO2)N1CCOCC1 (stereo unspecified) | inactive | –
